Test results from the supplement of paper PMC3334620.
Whole data set: some 33,000 sequences, median “E-score (-0.5 to 0.5)” near -0.011, cut for the highest 2% near 0.28. The list shows a part of the results.

target: T1, Gcr1 (UniProt P07261); test: PBM E-score (8-mer binding enrichment) (E-score (-0.5 to 0.5)); higher = stronger / more preferred TF binding; most listed sequences are background and not binding sites; conditions: protein concentration: 100 nM; construct: GST-full length
T1 sequence: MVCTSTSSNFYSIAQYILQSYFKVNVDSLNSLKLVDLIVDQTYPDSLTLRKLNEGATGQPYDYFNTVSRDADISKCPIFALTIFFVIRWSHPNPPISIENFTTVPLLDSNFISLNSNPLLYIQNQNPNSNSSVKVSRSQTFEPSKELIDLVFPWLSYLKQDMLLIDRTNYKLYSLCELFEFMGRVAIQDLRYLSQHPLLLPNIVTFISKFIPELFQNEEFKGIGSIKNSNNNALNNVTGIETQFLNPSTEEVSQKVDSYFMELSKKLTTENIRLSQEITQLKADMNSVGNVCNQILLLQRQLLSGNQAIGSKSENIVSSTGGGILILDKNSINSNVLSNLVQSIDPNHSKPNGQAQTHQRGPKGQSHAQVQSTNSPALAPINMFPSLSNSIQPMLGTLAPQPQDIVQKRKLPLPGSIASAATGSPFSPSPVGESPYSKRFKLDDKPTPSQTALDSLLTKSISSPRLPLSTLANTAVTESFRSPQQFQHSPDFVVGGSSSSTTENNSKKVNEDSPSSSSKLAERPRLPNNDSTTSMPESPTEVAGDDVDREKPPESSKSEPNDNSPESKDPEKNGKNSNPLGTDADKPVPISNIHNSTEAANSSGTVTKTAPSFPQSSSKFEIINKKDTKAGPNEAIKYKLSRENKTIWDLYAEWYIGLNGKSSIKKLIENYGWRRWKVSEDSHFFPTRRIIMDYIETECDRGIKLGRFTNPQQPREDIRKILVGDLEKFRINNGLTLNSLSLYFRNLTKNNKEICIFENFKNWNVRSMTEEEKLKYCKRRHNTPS
Procedure, shortened: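 Bound GST-tagged yeast transcription factors, applied at about 100-200 nM to double-stranded universal all-10-mer Agilent arrays, were detected with fluorescent anti-GST. Scans were normalised with masliner. A modified Wilcoxon-Mann-Whitney statistic, the E-score, was assigned to each ungapped eight-base word pooled with its reverse complement by the Universal PBM Analysis Suite.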

Sequence	PBM E-score
ATATGGAA	0.128
CGTCAAAA	0.185
GTGGTAAC	-0.0653
AGCGCTTG	0.0346
ACCGGACG	0.32
AAGAATGC	0.0371
CGTATTGA	0.0279
ACCCTCCG	-0.333
CATAGTCG	-0.031
CTGGTAGC	0.217
AAGGGAAC	0.0126
ACGGCCGT	-0.031
GGACCGAA	0.0294
ATCTAAGA	0.235
ACGTAACA	-0.0832
CGCAATAA	0.0471
CATAACGA	0.00907
TAGTGCAA	-0.0738
CTTGCGGA	0.0331
ATGTGTGC	-0.153
AACTACGT	-0.0547
GTTAGCCA	-0.0554
ACATATAA	-0.0176
ATGACAGA	-0.0106
ATTACAGG	0.355

Sequence	PBM E-score
GGGGCCAC	0.12
ATTCGAAA	0.0901
AGTTGGTC	0.0716
GCCGGCAC	0.0716
GGATGCAC	0.0822
ATTATACA	0.0559
CCGAACCG	-0.0578
AGCGACAT	0.158
AAAACGAT	0.057
CAAGGAGA	-0.0625
CTTAAGTC	-0.00814
GAGGGACC	-0.0798
CAAATCGC	-0.211
CAACAGCG	0.02
CGGAGGAG	-0.374
ACGCTCGG	-0.116
AACGCCCT	-0.026
TGAGTACA	0.0864
ATAAGCAA	-0.0154
ATGCGGTG	-0.0428
CCTTGAAA	0.0516
GAACCATA	0.1
TGAGACAA	-0.0715
AAGGCACT	0.0375
TCATTGGA	-0.0473

Sequence	PBM E-score
CTCATTAA	0.135
CCATTGCG	-0.147
CCCTATGA	0.122
CTCTCTCC	-0.0838
CGGTCGAG	0.0179
GTGCGAGA	-0.0259
CGAAGAAC	-0.128
AATTAGTA	0.211
AGTCTCTA	-0.188
CCGGTAGC	0.222
CTCAGTTA	0.125
GCAGGAAA	0.0396
TGATGAAA	-0.0671
ACACCTCG	0.0311
GAGGACGA	-0.0483
CTCCCTGC	-0.259
ATTGCACG	0.0734
AATAGGAC	0.206
AATCGTAC	0.0574
ATAGTATA	-0.0176
GCAATAAC	-0.184
GACCGACA	-0.0639
GCTTTATA	0.093
GAATCGAA	0.241
ACTCAATA	0.156

Sequence	PBM E-score
CATGTACG	-0.0811
CTTCAAAA	0.104
CAGTCAGC	-0.0658
AAAATGGA	0.142
AGAAACCT	-0.0336
ACACCGAA	0.0782
GTCCGTCA	0.0199
AGCGTCTA	0.307
ACTACTCT	-0.094
GACCGAGC	-0.154
ACTGGACA	0.0644
ACGTGACA	-0.124
AATGTATA	-0.0223
GCATGGAA	-0.181
CAGCGTTC	-0.0576
GACCAGCC	-0.185
CTGTCGTC	-0.0446
AGGGGTCG	-0.186
CTGCTGAA	0.0667
ATGAAACA	-0.0461
TACAACTA	0.0122
AGCAGCAC	-0.0251
GGATGACC	-0.187
AGAGTAAG	-0.111
CCGTGCAA	-0.159

Sequence	PBM E-score
AGTGTCAC	-0.117
AACACTAT	-0.0104
CGGATGGC	-0.151
GCGTTCGA	-0.184
ACATTTTA	0.247
CTAACTCA	-0.106
ATCGAACA	-0.0618
CTAGATTC	0.183
CGTTTTAA	0.134
ACCAAAGG	-0.0537
CCCAATGC	-0.0734
CCCTGGTC	-0.251
ACCTGAAT	0.172
GTAATTTA	0.109
GCGCGGAC	0.012
AAAGTGAA	0.111
GAGTATAA	-0.153
TCCCTAAA	0.139
AGACGGAA	-0.0525
ACGAATTA	0.0985
AACGGTTG	-0.168
ACTCCACA	0.1
ATTCGGGC	0.0222
CTACTCAC	-0.0637
AACCCGAC	0.0284

Sequence	PBM E-score
CAATCTCC	0.0196
CCTGGTGA	0.121
AAGTGACT	-0.0465
CGTGGGTC	-0.251
AGAGGGAC	-0.246
AAACTCAA	0.046
CGAAGCGA	-0.105
ATGTTTCC	0.042
ACAGCAGT	-0.0218
CGGGCGGC	0.0469
AGCCCAAA	0.179
GGCGCAAA	-0.0189
CCCGCCAA	-0.207
GCCAGAGC	-0.0666
ACGTCTGC	-0.157
ACAAGTTA	0.0121
AAAAGACG	0.131
ACGCCGAG	-0.0928
AGCTCGCG	-0.0019
CACGACCG	-0.191
AGGACGCG	0.283
GGTGCAAC	-0.0806
GAGTCGGA	0.036
ATTGTTAC	0.184
TAAGGAAA	-0.0269

Sequence	PBM E-score
CGGTTCGA	-0.0867
AGAGCCGG	0.0486
ATTATCTC	0.0819
CTGGCAAG	0.0198
CAGTAGAG	-0.0878
AGCTTATG	0.0485
AACGTGGT	0.0562
GATCCACC	-0.00046
GAATTCTC	0.157
AGAGCCCA	0.0698
ATACTGGC	0.161
CCGATTCC	0.124
AGGTGCAG	-0.205
CCATCGGG	-0.0175
AGTTGTGC	-0.0521
GGCTGGTA	-0.0695
CCTTAAAA	0.13
ATCCATAG	-0.169
CCAGTATA	0.235
ATCAAGCA	0.0584
CTGCGGTC	0.0555
TATGACGA	0.0408
